Data: the supplement of paper PMC4967469
pIC50: −log10 of the molar value. IC50 is the fitted dose that halves viability relative to control wells, and lower means more sensitive; fits outside the tested doses are given as limits. For AUC the same curve is integrated over the 256-fold range of doses and scaled to a fraction; the more sensitive the line, the further below 1. For some of these results: A top dose marked as inferred was calculated from the reported fits.

Columns and labels:
Assay in all cases: Viability of human cancer cell lines after 72 h of drug (GDSC screen)
[1] = compound: Cc1cc([N+](=O)[O-])ccc1NS(=O)(=O)c1cc(Cl)ccc1Cl [FH535]; conditions: top dose 32 µM; top dose inferred
Protocol: (§1)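 Human cancer cell lines in 384-well plates, medium with 10% serum, drug for 72 h over a 256-fold dose range (nine 2-fold or five 4-fold steps up to the top dose). Adherent lines were fixed and stained with the nucleic acid dye Syto60, suspension lines read with resazurin; signal relative to control wells, capped at 0 and 100%. One two-parameter sigmoid per drug and line, fitted in a mixed model over all curves with the slope shared within a line.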

[2] = compound: O=C(NC1CCNCC1)c1n[nH]cc1NC(=O)c1c(Cl)cccc1Cl [AT-7519]; conditions: top dose 10.24 µM; top dose inferred
Protocol: as §1

[3] = compound: CNC(=O)c1cc(Oc2ccc(NC(=O)Nc3ccc(Cl)c(C(F)(F)F)c3)cc2)ccn1 [Sorafenib]; conditions: top dose 4 µM
Protocol: as §1

[4] = compound: Cc1n[nH]c2ccc(-c3cncc(OC[C@@H](N)Cc4c[nH]c5ccccc45)c3)cc12 [A-443654]; conditions: top dose 1.024 µM; top dose inferred
Protocol: as §1

[5] = compound: COc1cc(N2CCN(C)CC2)ccc1Nc1nc(N)c(C(=O)c2c(Cl)cccc2Cl)s1 [XMD14-99]; conditions: top dose 10.24 µM; top dose inferred
Protocol: as §1

[6] = compound: Cc1nc(Nc2ncc(C(=O)Nc3c(C)cccc3Cl)s2)cc(N2CCN(CCO)CC2)n1 [Dasatinib]; conditions: top dose 1.28 µM
Protocol: as §1

Cell Line | AUC [1] | pIC50 [1] | AUC [2] | pIC50 [2] | AUC [3] | pIC50 [3] | AUC [4] | pIC50 [4] | AUC [5] | pIC50 [5] | AUC [6] | pIC50 [6]
MHH-PREB-1 (B-cell leukaemia, suspension) | 0.663 | 5.27 | 0.325 | 6.66 | 0.875 | 5.49 | 0.725 | 6.59 | 0.989 | < 4.99 | 0.719 | 6.51
MHH-NB-11 (neuroblastoma, adherent) | 0.914 | < 4.49 | 0.561 | 6.02 | 0.863 | < 5.40 | 0.835 | 6.11 | 0.892 | < 4.99 | 0.957 | < 5.89
A388 (skin, adherent) | 0.651 | 5.25 | 0.657 | 5.73 | 0.78 | 5.72 | 0.546 | 7.06 | 0.984 | < 4.99 | 0.442 | 7.27
NCI-H1436 (small cell lung carcinoma, suspension) | 0.898 | < 4.49 | 0.894 | < 4.99 | 0.753 | 5.82 | 0.811 | 6.19 | 0.952 | < 4.99 | 0.985 | < 5.89
no-11 (glioma, adherent) | 0.649 | 5.24 | 0.768 | 5.32 | 0.81 | 5.55 | 0.614 | 6.84 | 0.982 | < 4.99 | 0.748 | 
GI-ME-N (neuroblastoma, adherent) | 0.744 | 4.88 | 0.556 | 6.02 | 0.88 | < 5.40 | 0.738 | 6.40 | 0.908 | < 4.99 | 0.486 | 7.14
NB14 (neuroblastoma, adherent) | 0.63 | 5.35 | 0.856 | 5.13 | 0.768 | 5.85 | 0.93 | < 5.99 | 0.979 | < 4.99 | 0.989 | < 5.89
ES-2 (ovary, adherent) | 0.851 | 4.70 | 0.59 | 5.96 | 0.922 | < 5.40 | 0.927 | < 5.99 | 0.989 | < 4.99 | 0.963 | < 5.89
LS-123 (large intestine, adherent) | 0.701 | 5.05 | 0.705 | 5.53 | 0.966 | < 5.40 | 0.761 | 6.32 | 0.972 | < 4.99 | 0.584 | 6.83
NB7 (neuroblastoma, adherent) | 0.66 | 5.25 | 0.596 | 5.92 | 0.828 | 5.58 | 0.936 | < 5.99 | 0.95 | < 4.99 | 0.961 | < 5.89
A253 (head and neck, adherent) | 0.645 | 5.30 | 0.578 | 5.98 | 0.95 | < 5.40 | 0.789 | 6.36 | 0.988 | < 4.99 | 0.911 | < 5.89
HT (B-cell lymphoma, suspension) | 0.566 | 5.52 | 0.442 | 6.35 | 0.951 | < 5.40 | 0.755 | 6.49 | 0.989 | < 4.99 | 0.979 | < 5.89
NCI-H1836 (small cell lung carcinoma, suspension) | 0.97 | < 4.49 | 0.621 | 5.84 | 0.961 | < 5.40 | 0.874 | < 5.99 | 0.988 | < 4.99 | 0.921 | < 5.89
MLMA (hairy cell leukaemia, semi-adherent) | 0.744 | 5.00 | 0.303 | 6.75 | 0.984 | < 5.40 | 0.771 | 6.40 | 0.986 | < 4.99 | 0.58 | 6.88
EW-16 (Ewing sarcoma, adherent) | 0.639 | 5.31 | 0.588 | 5.95 | 0.92 | < 5.40 | 0.658 | 6.75 | 0.975 | < 4.99 | 0.783 | 6.25
NCI-H526 (small cell lung carcinoma, suspension) | 0.881 | 4.51 | 0.372 | 6.54 | 0.99 | < 5.40 | 0.851 | 6.14 | 0.861 | 5.09 | 0.983 | < 5.89

Cell Line | AUC [1] | pIC50 [1] | AUC [2] | pIC50 [2] | AUC [3] | pIC50 [3] | AUC [4] | pIC50 [4] | AUC [5] | pIC50 [5] | AUC [6] | pIC50 [6]
ES3 (Ewing sarcoma, adherent) | 0.703 |  | 0.484 | 6.24 | 0.922 | < 5.40 | 0.909 | < 5.99 | 0.912 | < 4.99 | 0.959 | < 5.89
COR-L88 (small cell lung carcinoma, adherent) | 0.929 | < 4.49 | 0.646 | 5.75 | 0.842 | 5.44 | 0.795 | 6.24 | 0.983 | < 4.99 | 0.985 | < 5.89
U-698-M (B-cell leukaemia, suspension) | 0.502 | 5.69 | 0.439 | 6.36 | 0.927 | < 5.40 | 0.93 | < 5.99 | 0.987 | < 4.99 | 0.944 | < 5.89
LP-1 (myeloma, suspension) | 0.693 | 5.20 | 0.445 | 6.33 | 0.895 | 5.47 | 0.935 | < 5.99 | 0.917 | < 4.99 | 0.974 | < 5.89
LB996-RCC (kidney, adherent) | 0.681 | 5.15 | 0.944 | < 4.99 | 0.86 | < 5.40 | 0.606 | 6.88 | 0.983 | < 4.99 | 0.255 | 7.85
CGTH-W-1 (thyroid, adherent) | 0.753 | 4.97 | 0.939 | < 4.99 | 0.467 | 6.69 | 0.712 | 6.60 | 0.983 | < 4.99 | 0.387 | 7.41
DB (B-cell lymphoma, suspension) | 0.635 | 5.30 | 0.308 | 6.77 | 0.875 | < 5.40 | 0.761 | 6.39 | 0.875 | < 4.99 | 0.964 | < 5.89
P32-ISH (Burkitt lymphoma, suspension) | 0.625 | 5.39 | 0.476 | 6.25 | 0.886 | 5.59 | 0.614 | 6.92 | 0.973 | < 4.99 | 0.761 | 6.45
NCI-H1155 (large cell lung carcinoma, suspension) | 0.953 | < 4.49 | 0.918 | < 4.99 | 0.954 | < 5.40 | 0.83 | 6.31 | 0.993 | < 4.99 | 0.993 | < 5.89
AM-38 (glioma, semi-adherent) | 0.821 | 4.72 | 0.845 | 5.12 | 0.97 | < 5.40 | 0.978 | < 5.99 | 0.974 | < 4.99 | 0.974 | < 5.89
GR-ST (lymphoblastic leukaemia, suspension) | 0.739 | 4.95 | 0.399 | 6.50 | 0.975 | < 5.40 | 0.783 | 6.27 | 0.896 | < 4.99 | 0.933 | < 5.89
HT-144 (melanoma, adherent) | 0.552 | 5.55 | 0.957 | < 4.99 | 0.853 | 5.43 | 0.628 | 6.82 | 0.974 | < 4.99 | 0.679 | 6.57
KE-37 (lymphoblastic leukaemia, suspension) | 0.721 | 5.15 | 0.19 | 6.98 | 0.918 | 5.45 | 0.581 | 7.00 | 0.89 | 5.16 | 0.989 | < 5.89
NCI-H2141 (small cell lung carcinoma, suspension) | 0.906 | < 4.49 | 0.709 | 5.61 | 0.961 | < 5.40 | 0.826 | 6.22 | 0.99 | < 4.99 | 0.967 | < 5.89
BV-173 (chronic myeloid leukaemia, suspension) | 0.652 | 5.30 | 0.319 | 6.67 | 0.782 | 5.83 | 0.729 | 6.58 | 0.965 | < 4.99 | 0.067 | > 8.30
GT3TKB (stomach, adherent) | 0.587 | 5.47 | 0.863 | 5.14 | 0.975 | < 5.40 | 0.804 | 6.36 | 0.987 | < 4.99 | 0.958 | < 5.89
